Test results as given in PubChem BioAssay AID1963576 (National Center for Advancing Translational Sciences (NCATS), 2024).
In all, about 46,000 compounds went through this assay and about 60 (0.1%) were called active. Inconclusive results (about 3%) are left out. Calls come from the whole dose curve; as a rule, active = well fitted inhibition curve with a large enough effect; inconclusive = small, poorly fitted or top-dose-only effect; inactive = no such curve, though single readings can be large or run the other way. Some of the results follow.

Test: Primary qHTS assay for Inhibitors of ovarian cancer metastasis using an organotypic tumor microenvironment (TME) model.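 For activity change, negative = inhibition: plate controls were DMSO wells for no effect and tomatine positive control wells for full effect.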 Note: nearly all actives have a fitted effect of over 65% in size.
Settings: SKOV3ip1-GFP adhesion/invasion on 3D omental model, fluorescence; series mostly up to 45.8 µM; activity change, negative = inhibition: at the top concentration
Summary of the method: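 Adhesion/invasion was scored as fixed GFP-labeled SKOV3ip1 cell counts (488/509 nm), normalized to DMSO and tomatine controls. Cancer cells in serum-free medium, with four compound doses (0.36-46 umol/L), sat 2 hr at RT then 16 hr at 37 C on a 48 hr fibroblast/mesothelial/ECM culture.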

Activity change, negative = inhibition, inactive:
CCOC(=O)C1CCN(C(=O)Cn2ncc3c4ccccc4n(Cc4ccc(F)cc4)c3c2=O)CC1 0.041%
Cc1cc(NC(=O)CSc2ncc(C(=O)Nc3ccc(Cl)cc3)c(=O)n2C)no1 3.88%
Cc1ccc(NC(=O)CN2C(=O)COc3ccc(S(=O)(=O)NC4CCCC4)cc32)cc1Cl 0.302%
CC(C)(C)C(=O)Cn1c(=O)n(-c2ccccc2)c(=O)c2c3c(sc21)CCC3 -9.63%
Cn1c2ccccc2c2cnn(CC(=O)N3CCN(c4cccc(C(F)(F)F)c4)CC3)c(=O)c21 -1.12%
CCC(CC)C(=O)Nc1ccc2nc(SCC(=O)N3CCc4ccccc43)sc2c1 -1.39%
Cc1ccc(CNC(=O)CN(c2cccc(C)c2C)S(=O)(=O)c2ccccc2)cc1 -9.01%
CC1=C(C(N)=O)C(c2ccc(F)cc2)n2nc(-c3ccccc3Cl)nc2N1 (stereo not given) 0.984%
COc1ccc(CC(=O)NCc2ccc3c(c2)CCN3C(C)=O)cc1 0.362%
COc1ccc(-c2nc(SCC(=O)Nc3ccc4c(c3)OCCO4)c(-c3ccc(F)cc3)[nH]2)cc1OC 13.5%
O=C(OCc1cc(=O)n2nc(C3CCCCC3)sc2n1)c1ccccc1Cl 3.82%
COc1cccc(-c2nnc(SCC(=O)N3CCC(C)CC3)o2)c1 -13.4%
CC(C)CC(=O)n1nc(-c2cccnc2)nc1NCc1ccc(F)cc1 -3.32%
COc1ccc(OCC(=O)OCc2cc(=O)n3nc(-c4cccs4)sc3n2)cc1 -20.8%
Cc1cc(C)n(-c2nc3ccccc3nc2Nc2ccc(Cl)c(C(=O)OC(C)C)c2)n1 4.14%
Cc1cc(C)cc(NC(=O)CSc2oc(-c3ccccc3)nc2S(=O)(=O)c2ccccc2)c1 -1.9%
CCc1ccc(O)c(C(=O)c2cnc3cc(-c4ccc(C)cc4)nn3c2)c1 1.07%
N#Cc1c(C(F)(F)F)cc(-c2cccs2)nc1SCC(=O)Nc1ccccc1F 3.13%
Cc1ccc(CCNC(=O)CCCn2c(=O)c3ccccc3n(Cc3ccccc3C#N)c2=O)cc1 -7.07%
Cc1ccc(Cl)cc1NC(=O)Cn1c(=O)n(Cc2ccccc2)c(=O)c2oc3ccccc3c21 1.51%
CCn1cc(S(=O)(=O)c2ccccc2)c(=O)c2cc(F)c(N3CCCC3)cc21 11.2%
O=C1Cc2cc(CCN3CCN(c4nsc5ccccc45)CC3)c(Cl)cc2N1 -1.19%
O=C(c1cc(-c2ccccc2O)on1)N1CCCCC1 -11.9%
COc1cc(OC)c(OC)cc1/C=C/c1nc2cc3ccccc3cc2c(=O)n1-c1ccc(F)c(Cl)c1 -1.56%
Cc1cc2nc(-c3cccc(NC(=O)C(C)C)c3C)oc2cc1C -2.1%
CCN[C@H]1C[C@H](C)S(=O)(=O)c2sc(S(N)(=O)=O)cc21 2.24%
CCN(CC)C(=O)c1sc2c(c1C)c(=O)n(CCc1ccccc1)c(=O)n2Cc1ccc(F)cc1Cl 13.5%
COc1ccccc1NC(=O)c1c(NC(=O)COc2ccccc2)sc2c1CCCCC2 -2.53%
CNC(=O)C1CCC(Cn2c(=O)c3sccc3n(CC(=O)NCc3ccc(OC)cc3)c2=O)CC1 (stereo not given) -3%
O=C(Cn1c(=O)n(-c2cccc(Cl)c2)c(=O)c2sc3ccccc3c21)NC1CCCCC1 -9.54%
Cc1ccc(OCC(=O)Nc2cccc(-c3nc4ccccc4o3)c2C)cc1C 9.54%
Clc1ccc(CN2CCC(CNc3ncnc4onc(-c5ccc(Cl)cc5)c34)CC2)cc1 18.8%
COC(=O)c1cccc(Nc2c(-c3ccc(SC)cc3)nc3nc[nH]n23)c1 -9.48%
Cc1ccc(-n2ncc(C(=O)NCCc3ccsc3)c2C2CCN(C(=O)OC(C)(C)C)CC2)c(C)c1 -8.91%
Cc1cccc(S(=O)(=O)c2cn(Cc3ccc(F)cc3)c3cc(N4CCCCC4)c(F)cc3c2=O)c1 2.66%
COc1ccc(Cl)cc1NC(=O)CN(c1cccc(C)c1C)S(C)(=O)=O -1.06%
COC(=O)[C@@H]1[C@H]2C[C@@H]3c4[nH]c5ccccc5c4CCN3C[C@@H]2CC[C@@H]1O 5.41%
O=C(CSc1nc2c([nH]c3ccccc32)c(=O)n1-c1ccc(Cl)cc1)NCc1ccccc1 9.92%
CCn1c(=O)c(=O)n(CC)c2cc(N3CCCCC3)c(NC(=O)c3ccc(OC)c(OC)c3)cc21 2.9%
COc1cc(C(=O)Nc2sc3c(c2C(N)=O)CCC(C)C3)cc(OC)c1OC (stereo not given) -7%
CCc1ccccc1NC(=O)c1cc(-c2ccc(OC)cc2)on1 9.37%
CN1CCN(C(CNC(=O)C(=O)Nc2ccccc2C#N)c2ccc3c(c2)OCO3)CC1 (stereo not given) 9.1%
CC1=C(C(=O)Nc2cc(Cl)ccc2C)C(c2ccccc2F)n2ncnc2N1 (stereo not given) 9.92%
CCc1ccc(S(=O)(=O)NCc2cccn2Cc2cccc(C)c2)cc1 0.566%
Cc1ccc(-n2nc(C(=O)N3CCCCC3)c(=O)n(C)c2=O)cc1 11.6%
CCCN(CCC)CCNC(=O)CS(=O)Cc1nc(-c2ccc(OC)c(OC)c2)oc1C (stereo not given) -2.23%
COC(=O)c1ccc(NC(=O)CC2C(=O)N(c3cccc(F)c3)C(=O)N2CC(C)C)cc1 (stereo not given) 12.9%
CCCNC(=O)C1CCC(Cn2c(=O)c3sccc3n(CC(=O)N(CC)CC)c2=O)CC1 (stereo not given) -13.1%
CNc1ccc(-c2nc(-c3ccccn3)no2)cc1[N+](=O)[O-] -15.7%
Cc1ccc(CNC(=O)c2cc3cc(C)ccc3n2C)cc1 -0.574%
COc1ccc(-n2c(=O)c3ccc(C(=O)NCc4ccc(C)cc4)cc3n(CC(=O)Nc3cccc(F)c3)c2=O)cc1 -0.836%
COCCCNC(=O)Cn1c(=O)n(-c2ccccc2)c(=O)c2c1c1cc(OC)ccc1n2C 2.6%
CCOC(=O)c1cc(NC(=O)c2ccc(C)cc2)c(=O)n2c1oc1ccccc12 33.8%
CCOc1ccc(C2c3[nH]c4ccccc4c3CCN2C(=O)CSc2ccccc2)cc1 (stereo not given) -8.38%
CCc1c(CN2CCN(c3ccc(F)cc3)CC2)csc1C -9.65%
COc1ccc(NC(=O)c2sc3nc(C)c(C(=O)Nc4ccc(C)cc4C)c(-c4sccc4C)c3c2N)cc1 2.25%
CC(=O)Nc1ccc2nc(SCCOc3ccc(C)cc3)sc2c1 7.45%
COc1ccc(Nc2ncnc3scc(-c4ccc(F)cc4)c23)cc1 -8.07%
COCCNc1nc2c(S(=O)(=O)c3ccccc3)nnn2c2ccc(Cl)cc12 2.77%
O=C(COc1ccc(Cl)cc1)NCCc1csc(-c2ccc(C(F)(F)F)cc2)n1 3.66%
COc1cc2c(cc1NC(=O)COc1cc(C)cc(C)c1)oc1ccccc12 15.2%
COc1ccc(C)cc1Nc1nc2c(S(=O)(=O)c3cc(C)ccc3C)nnn2c2ccsc12 16.8%
CCCCCn1c(=O)[nH]c2cc(C(=O)N3CCN(c4ccc(OC)cc4)CC3)ccc2c1=O 26.2%
COc1ccc(Cn2c(CCC(=O)Nc3ccc(Br)c(C)c3)nc3cccnc32)cc1 2.5%

outcome, inactive:
CC(=O)c1cccc(NC(=O)C2CCCN(C(=O)c3cnn(-c4ccccc4)c3-n3cccc3)C2)c1 (stereo not given)
Cc1cccc(N2CCN(S(=O)(=O)c3cc(Cl)ccc3Cl)CC2)c1C
CCOc1ccc(C(=O)Nc2cccc(NC(=O)c3ccc(C(C)(C)C)cc3)c2)cc1Br
CCCCNc1ccc(-c2nc(-c3ccco3)no2)cc1[N+](=O)[O-]
CCOC(=O)c1c(-c2ccc(C)cc2)csc1NC(=O)c1cc(-c2ccc(C)c(F)c2)on1
O=C(c1ccc2c(c1)N(Cc1ccc(F)cc1)C(=O)c1ccccc1S2(=O)=O)N1CCN(Cc2ccccc2)CC1
COCCCNC(=O)c1ccc(-n2c(-c3ccccc3)cc3c2CCCC3)cc1
Cc1ccc(NC(=O)CCCn2c(=O)c3cccn3c3ccccc32)cc1C
Cc1ccc(OCC(=O)Nc2cccc(OCc3cc(=O)n4cccc(C)c4n3)c2)cc1C
Cc1ccc(CNC(=O)CCc2c(C)nc3nc(C)nn3c2C)cc1
CCn1cc2c(n1)-c1c(oc(C(=O)Nc3cccc(C)c3C)c1C)CC2
Cc1cc(C)cc(NS(=O)(=O)c2ccc3[nH]cc(C(=O)NC4CCCCC4)c(=O)c3c2)c1
CCOc1ccc(-c2cc(C(=O)NCc3ccccc3Cl)c3ccccc3n2)cc1
CCc1c(C)nc(SCc2nc(-c3ccccc3)no2)[nH]c1=O
CCOc1ccc(C(=O)Nc2ccc3nn(-c4ccc(OC)c(Cl)c4)nc3c2)cc1
O=C(c1ccc2c(c1)N(Cc1ccccc1F)C(=O)c1ccccc1S2(=O)=O)N1CCN(c2ccccc2F)CC1
COc1ccc2cc(-c3nc(Cl)c4c5c(sc4n3)CC(C)CC5)c(=O)oc2c1 (stereo not given)
O=C(CSCc1ccc(F)cc1)N1CCN(c2ccc(Cl)cc2)CC1
CCc1ccc(C2N=C(N)Nc3nc4ccccc4n32)cc1 (stereo not given)
Cc1cccc(N2CCN(c3ncnc4onc(C)c34)CC2)c1C
O=C(NCc1cccc(Cl)c1)c1cnc(N2CCCCC2)c2ccccc12
COc1ccc(CCNC(=O)Cn2c(=O)c3sccc3n(CC(=O)Nc3cccc(C(F)(F)F)c3)c2=O)cc1OC
O=C(CCCCCn1c(=O)[nH]c2ccccc2c1=O)NCCc1ccccc1
CCc1ccc(CNC(=O)CN2C(=O)CSc3ccc(S(=O)(=O)N4CCOCC4)cc32)cc1
Cc1ccc2sc(N(CCCN(C)C)C(=O)c3ccco3)nc2c1C
COc1ccc(CCNC(=O)CSc2cc(=O)n(C)c3ccccc23)cc1OC
COc1ccc(NC(=O)Cn2nnnc2-c2ccccc2F)c(C)c1
CN(Cc1ccccc1)C(=O)C(=O)Nc1ccc2nc3n(c(=O)c2c1)CCCCC3
COc1cccc(C(=O)Nc2nc3c(s2)CCCC3)c1
COc1ccc(CN2C(=O)N(c3cccc(C)c3)C(=O)C2CC(=O)Nc2ccc(F)cc2)cc1OC (stereo not given)
Cc1ccc(CN2CCC(CNC(=O)Nc3ccccc3F)CC2)cc1
